Earlier results, collected in US4701406A, “Assay for the detection of epigenetic toxic (non-genotoxic) substances” (priority 1984, dated 1987).

Details: Table I; recognized by U.S. Department of Health and Human Services; cited from earlier work

For `O=[As][O-].[Na+]` [As(III) as NaAsO2, NaAsO2], the “Health Hazardous Activity (carcinogen / promoter)” value is given as “carcinogen”.
